From PubChem BioAssay AID360 (National Center for Advancing Translational Sciences (NCATS), 2006)
In all, about 48,000 compounds went through this assay and about 550 (1.1%) were called active. About 4% were inconclusive and are not listed. Cut-off read from the data, not from the text of the source: active = potency below about 15 µM; inconclusive = mostly about 16 µM to 33 µM; inactive = weaker than that. The list shows a part of the results.

biological target: Lysosomal acid glucosylceramidase (Homo sapiens) (UniProt P04062); test: Glucocerebrosidase; details: purified enzyme, resorufin glucoside fluorescence (screen aimed at inhibitors), 20 min;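 note: the screen sought inhibitors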
In short: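 Compounds titrated against 0.2 nM normal enzyme, 30 uM resorufin beta-D-glucopyranoside substrate, citrate/phosphate buffer with taurocholate and tween-20, pH 5.9. Reaction ran 20 min at room temperature; fluorescence (Ex 548/Em 600) gave AC50.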
Potency is the fitted concentration of half-maximal effect.

Chain of UniProt P04062 (P04062 whole entry, looked up): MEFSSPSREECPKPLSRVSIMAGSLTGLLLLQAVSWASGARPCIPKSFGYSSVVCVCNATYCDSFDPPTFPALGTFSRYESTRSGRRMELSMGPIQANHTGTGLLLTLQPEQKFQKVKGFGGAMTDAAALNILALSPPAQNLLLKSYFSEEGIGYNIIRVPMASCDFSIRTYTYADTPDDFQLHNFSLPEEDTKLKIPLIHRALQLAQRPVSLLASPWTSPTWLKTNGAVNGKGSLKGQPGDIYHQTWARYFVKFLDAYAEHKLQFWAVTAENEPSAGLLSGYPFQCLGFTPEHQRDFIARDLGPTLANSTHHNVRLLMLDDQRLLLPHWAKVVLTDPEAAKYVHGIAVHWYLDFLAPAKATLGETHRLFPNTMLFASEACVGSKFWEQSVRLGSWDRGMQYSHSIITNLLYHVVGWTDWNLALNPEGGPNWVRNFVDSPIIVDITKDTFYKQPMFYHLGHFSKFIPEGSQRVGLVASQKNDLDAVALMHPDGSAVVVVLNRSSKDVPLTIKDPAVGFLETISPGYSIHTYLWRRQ

Potency, inactive:
C=CCN1CCN(C(c2ccc(OC)c(OC)c2)c2nnnn2C(C)(C)C)CC1 (stereo unspecified)
O=C(NC1CCCCC1)N(Cc1cc2cc3c(cc2[nH]c1=O)OCCO3)CC1CCCO1 (stereo unspecified) > 76.9 µM
CCC(C)[C@H](NC(=O)NCc1ccccc1Cl)C(=O)OC (stereo partly specified) > 76.9 µM
COC(=O)CCC(=O)COc1ccccc1C#N > 76.9 µM
CCCOc1ccc(Cn2c(=O)oc3ccc(C)cc32)cc1OC > 76.9 µM
CCOC(=O)c1ccc(CNS(=O)(=O)c2c(C)ccc3nsnc23)o1 > 76.9 µM
O=C(Cn1c(=O)n(-c2ccc(F)cc2)c(=O)c2sccc21)N1CCCC1 > 76.9 µM
CCN(CC)c1nc2n(c(=O)n1)CCO2 > 76.9 µM
O=C(NCC(=O)N(c1cccnc1)C(C(=O)NCc1ccco1)c1ccccc1)c1ccco1 (stereo unspecified) > 76.9 µM
OC(COc1ccc(Cl)c2ccccc12)CN1CCN(c2ccccn2)CC1 (stereo unspecified)
Cc1nc2ccc3nc(NC(=O)c4ccc(S(=O)(=O)N5CCOCC5)cc4)sc3c2s1 > 76.9 µM
CC(C)n1c(Nn2cnnc2)nc2ccccc21 > 76.9 µM
CC(=O)N1C2CCCCC2S[C@H]2CCCCC21 (stereo partly specified) > 76.9 µM
COc1ccc(NC(=O)CN2CCC(C)CC2)cc1 > 76.9 µM
COC(=O)c1ccc(OCC(O)CN(CCO)CCO)cc1 (stereo unspecified) > 76.9 µM
CN(C)S(=O)(=O)n1cnc2ccccc21 > 76.9 µM
CCCc1nnc(SCC(=O)N2CCCC2)n1CC1CCCO1 (stereo unspecified) > 76.9 µM
COCCn1c(SCCN2CCCCC2)nc2ccccc2c1=O > 76.9 µM
O=C(CSc1nnc(C2COc3ccccc3O2)o1)N1CCOCC1 (stereo unspecified) > 76.9 µM
CCCN(CCC)CCNC(=O)C1CCCN(S(=O)(=O)c2ccc3c(c2)oc(=O)n3C)C1 (stereo unspecified) > 76.9 µM
Cc1ccccc1C(=O)NC1CCN(Cc2nnnn2Cc2ccc(F)cc2)CC1 > 76.9 µM
Cc1cccc(N2CCCn3c2nc2c3c(=O)n(CC(=O)OCc3ccccc3)c(=O)n2C)c1 > 76.9 µM
COCCn1c(SCc2csc(-c3ccccc3)n2)nc2ccccc21 > 76.9 µM
Clc1ccccc1-c1nnc2sc(-c3ccc(Br)o3)nn12 > 76.9 µM
O=C(NCc1ccccn1)C1CCN(S(=O)(=O)c2cccs2)CC1 > 76.9 µM
COc1ccc(OC)c(NC(=O)CSc2nnc(-c3ccco3)n2-c2ccccc2)c1 > 76.9 µM
